# Laboratory results reported in the supplement of paper PMC4604168 (melanoma cell lines).
# This is one part of the list. Single values are uncertain, as repeats are few or missing.
# Tested on: MEL-HO
# Assay: cell count relative to DMSO control; melanoma cells; higher = more viable cells
# Details: library dose: low library concentration; 72 h
# 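Further: cell number obtained by counting DAPI-stained nuclei in high-throughput microscope images with image analysis software, screen run in 1,536-well plates.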
row,Compound,cell count [%]
1,"CC[C@]1(O)C[C@H]2CN(CCc3c([nH]c4ccccc34)[C@@](C(=O)OC)(c3cc4c(cc3OC)N(C=O)[C@H]3[C@@](O)(C(=O)OC)[C@H](OC(C)=O)[C@]5(CC)C=CCN6CC[C@]43[C@@H]65)C2)C1 [vincristine] + Cn1c(=O)n(-c2ccc(C(C)(C)C#N)cc2)c2c3cc(-c4cnc5ccccc5c4)ccc3ncc21 [NVP-BEZ235] (first compound 0.0001 µM, partner dose 0.004 µM)",81.3
2,"CC[C@]1(O)C[C@H]2CN(CCc3c([nH]c4ccccc34)[C@@](C(=O)OC)(c3cc4c(cc3OC)N(C=O)[C@H]3[C@@](O)(C(=O)OC)[C@H](OC(C)=O)[C@]5(CC)C=CCN6CC[C@]43[C@@H]65)C2)C1 [vincristine] + CO[C@H]1C[C@@H]2CC[C@@H](C)[C@@](O)(O2)C(=O)C(=O)N2CCCC[C@H]2C(=O)O[C@H]([C@H](C)C[C@@H]2CC[C@@H](OCCO)[C@H](OC)C2)CC(=O)[C@H](C)/C=C(\C)[C@@H](O)[C@@H](OC)C(=O)[C@H](C)C[C@H](C)/C=C/C=C/C=C/1C [everolimus] (first compound 0.0001 µM, partner dose 0.02 µM)",66.1
3,"N#CC[C@H](C1CCCC1)n1cc(-c2ncnc3[nH]ccc23)cn1 [ruxolitinib] + CC[C@]1(O)C[C@H]2CN(CCc3c([nH]c4ccccc34)[C@@](C(=O)OC)(c3cc4c(cc3OC)N(C=O)[C@H]3[C@@](O)(C(=O)OC)[C@H](OC(C)=O)[C@]5(CC)C=CCN6CC[C@]43[C@@H]65)C2)C1 [vincristine] (first compound 1 µM, partner dose 0.0001 µM)",108
